# Measured values from PubChem BioAssay AID1671188 (National Center for Advancing Translational Sciences (NCATS), 2021).
# Out of some 100,000 compounds screened, about 250 (0.25%) were called active. Inconclusive results, whose numbers are uncertain, are shown with a selection of clear calls. The call rests on the fitted dose curve; in most records, active means well fitted inhibition curve with a large enough effect; inconclusive means small, poorly fitted or top-dose-only effect; inactive means flat fitted curve, though single readings scatter. Potencies of inconclusive entries are left out as doubtful fits.
# Molecular target: Alanine aminotransferase 2 (Homo sapiens) (UniProt Q8TD30)
# UniProt Q8TD30, sequence (Q8TD30 whole entry, looked up): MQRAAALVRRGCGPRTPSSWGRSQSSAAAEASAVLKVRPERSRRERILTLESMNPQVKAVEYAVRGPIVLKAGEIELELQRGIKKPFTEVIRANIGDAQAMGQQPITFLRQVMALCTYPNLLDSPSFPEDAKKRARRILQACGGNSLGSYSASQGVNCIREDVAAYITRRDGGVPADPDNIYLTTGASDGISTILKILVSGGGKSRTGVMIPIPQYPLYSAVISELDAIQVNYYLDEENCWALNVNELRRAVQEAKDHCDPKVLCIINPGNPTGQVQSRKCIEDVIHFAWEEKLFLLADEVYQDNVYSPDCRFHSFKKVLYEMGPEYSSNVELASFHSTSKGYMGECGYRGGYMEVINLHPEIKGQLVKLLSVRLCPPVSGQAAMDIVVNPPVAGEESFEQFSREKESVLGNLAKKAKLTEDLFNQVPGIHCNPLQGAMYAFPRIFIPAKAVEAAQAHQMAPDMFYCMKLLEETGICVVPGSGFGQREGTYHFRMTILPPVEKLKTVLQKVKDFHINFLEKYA
# Test: Primary qHTS assay for inhibitors of Glutamate pyruvate transaminase 2 (GPT2); further: nearly all actives have a fitted effect of over 60% in size
# Conditions: Recombinant GPT2, coupled pyruvate oxidase/HRP Amplex Red fluorescence; series mostly up to 57.7 µM
# Summary of the method: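 Inhibition is scored from Amplex Red fluorescence generated when pyruvate oxidase and HRP act on pyruvate released by GPT2. Reactions contain 10ng/uL enzyme, 250uM a-KG and 2mM L-alanine and run 30 min at room temperature.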
# Potency means the concentration at half of the fitted maximal effect; tags describe the fitted curve by direction and shape.
row,Compound,Potency
1,Cc1ccccc1Nc1cnc2ccc(N3CCOCC3)nn12,"inconclusive [inhibitor, single point]"
2,COc1ccc(C2=NOC3(CCN(Cc4ccsc4)C3)C2)cc1 (stereo not drawn),inactive
3,Cc1noc(C)c1-c1cc2cc(CN(C)C)oc2c(N2CCN(Cc3ccccc3)CC2)n1,"inconclusive [inhibitor, single point]"
4,COCC1CN(C2CCC2)CC12CCN(C(=O)c1ccc(OC)nc1)CC2 (stereo not drawn),inactive
5,O=C1CC2(CCN(C(=O)C3CCN(C(=O)c4ccc(Cl)nc4)CC3)CC2)Oc2ccccc2N1,inactive
6,NC(=O)CNC(=O)C1=C[C@@H](NC(=O)Nc2ccc(OC(F)(F)F)cc2)[C@@H](O)[C@H](O)C1,"inconclusive [inhibitor, single point]"
7,Cc1ccc(CN2CCN(C(=O)c3ccc4c(c3)C(O)CCCCCN4C)CC2)cc1 (stereo not drawn),inactive
8,O=C1NC2(CCN(C(=O)c3ccc(C(F)(F)F)cc3)CC2)Oc2ccccc21,"inconclusive [inhibitor, single point]"
9,CC(C)(C)c1cc(CC2(NCc3ccc(OC(F)(F)F)cc3)COC2)no1,"inconclusive [inhibitor, single point]"
10,CC(C)CN1C(=O)CCc2cc(NC(=O)c3c(F)cccc3F)ccc21,"inconclusive [inhibitor, partial curve, poor fit]"
11,N#Cc1cccc(-c2ccnc(N[C@H]3CO[C@H]4[C@@H]3OC[C@H]4OC(=O)Nc3cccc(C(F)(F)F)c3)n2)c1,"inconclusive [inhibitor, full curve, poor fit]"
12,CNc1ncc(C(=O)N2CCCC3(CCC(=O)N(CCOC)C3)C2)cn1 (stereo not drawn),inactive
13,CCN(CC)Cc1ccc(C(=O)N(CCc2ccccc2OC)[C@@H]2CCNC2)cc1,"inconclusive [inhibitor, single point]"
14,Cc1cc(C)c(CNC(=O)c2cc(-c3ccnn3C)cc3c2OCCN3C)c(=O)[nH]1,"inconclusive [inhibitor, single point]"
15,Cn1cc(CN[C@H]2C[C@H]3C(=O)NC[C@@H](CCC(=O)NCc4ccc(F)cc4)N3C2)c2ccccc21,inactive
16,COc1ccc(NC(=O)O[C@@H]2C=C[C@H](c3c(C)nn(-c4ccc(C)c(Cl)c4)c3C)C2)cc1,inactive
17,O=C(c1ccc[n+]([O-])c1)N1CCOC(CC(c2ccccc2)c2ccccc2)C1 (stereo not drawn),"inconclusive [inhibitor, single point]"
18,COc1ccc(Cc2nc3nccc(-c4cc(OC)c(OC)c(OC)c4)n3n2)cc1,inactive
